# Source: PubChem BioAssay AID588855 (National Center for Advancing Translational Sciences (NCATS), 2011)
# Among all 410,000 compounds or so, about 5,000 (1.2%) were called active. The inconclusive results got no clear call from the source; some entries with a clear call stand among them for comparison. Calls follow the shape of the dose curve; as a rule, active = well fitted inhibition curve with a large enough effect; inconclusive = small, poorly fitted or top-dose-only effect; inactive = no such curve, though single readings can be large or run the other way. A potency beside an inconclusive call is a rough fit, not a confirmed value.
# Assay: qHTS for Inhibitors of TGF-b; also: nearly all actives have a fitted effect of over 65% in size
# Details: HepG2 CAGA-GFP TGF-b/SMAD3 reporter, GFP fluorescence, 18 h, TGF-beta stimulated, 500 pg/mL final; series mostly up to 46.1 µM
# Outline: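 GFP signal (ex488/em500-530) from TGF-beta-stimulated HEPG2 CAGA-GFP cells, 500 pg/mL final, 18 h at 37 degrees C in DMEM plus 1% FBS, normalized to unstimulated and DMSO-stimulated controls.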
# Potency is read from the fitted curve at half-maximal effect; tags tell the direction and shape of the fitted curve.
row,Structure (SMILES),Potency
1,COC(=O)c1nn(-c2ccccc2)nc1-c1nn(-c2ccccc2)nc1C(=O)OC,inactive
2,O=C(c1ccc(Cl)nc1)N1CCc2ccccc2C1,"inconclusive: 35.5 µM [inhibitor, single point]"
3,CC(C)Cn1c(N2CCN(CC(=O)Nc3ccc(Cl)cc3)CC2)nc2ccccc21,"inconclusive: 11.2 µM [inhibitor, partial curve]"
4,c1ccc(CN=C(NCc2ccccc2)NCc2ccccc2)cc1,"inconclusive: 35.5 µM [inhibitor, single point]"
5,CC(C)(C)NC1=NCCNC(c2ccccc2)=C1,"inconclusive: 35.5 µM [inhibitor, single point]"
6,CC1=C(C(=O)N(C)C)CC(CC(=O)NCc2cccc3ccccc23)C(=O)N1CCC1=CCCCC1 (centres undefined),"inconclusive: 7.94 µM [inhibitor, partial curve]"
7,O=C(c1ccccc1)N(NC(=O)C(O)(c1ccccc1)c1ccccc1)c1cccc(F)c1,"inconclusive: 20 µM [inhibitor, single point]"
8,CCCS(=O)(=O)c1nc(S(=O)(=O)c2ccc(C)cc2)c(NCc2ccco2)s1,"inconclusive: 6.31 µM [inhibitor, single point]"
9,Cc1ccsc1CCN1C(=O)N(c2ccccc2)C(=O)C1CC(=O)Nc1ccc(F)cc1 (centres undefined),"inconclusive: 35.5 µM [inhibitor, single point]"
10,COc1ccc(-c2nc3cc(NC(=O)Cc4ccc(Cl)cc4)ccc3o2)cc1OC,"inconclusive: 3.55 µM [inhibitor, partial curve, poor fit]"
11,CCOC(=O)Cn1cc(C#N)c2ccccc21,"inconclusive: 35.5 µM [inhibitor, single point]"
12,O=C(C1CCCCC1)N1CCC2CC1c1cc(-c3ccc4c(c3)OCO4)ccc12 (centres undefined),"inconclusive: 22.4 µM [inhibitor, single point]"
13,O=C(CC1N=C2c3ccccc3N=C(SCc3ccccc3F)N2C1=O)NCCc1ccccc1 (centres undefined),"inconclusive: 14.1 µM [inhibitor, single point]"
14,O=C(O)C1CCCN(S(=O)(=O)c2ccc(Br)s2)C1 (centres undefined),inactive
15,O=C(CCN1CCCCC1)c1ccccc1,"inconclusive: 35.5 µM [inhibitor, single point]"
16,O=C(CSc1nc2ncc(Br)cc2[nH]1)Nc1ccccc1-c1ccccc1,"inconclusive: 15.8 µM [inhibitor, single point]"
17,Cc1cccc(C(=O)Nc2cc3c(cc2N2CCCCC2)n(C)c(=O)c(=O)n3C)c1,inactive
18,O=c1cc(CO)oc(C(Nc2cccc(C(F)(F)F)c2)c2ccccn2)c1O (centres undefined),"inconclusive: 1.12 µM [inhibitor, full curve, poor fit]"
19,Cc1c(NC(=O)Nc2ccc(Cl)c(Cl)c2)sc(=S)n1C,"inconclusive: 35.5 µM [inhibitor, single point]"
20,CCn1c2ccccc2c2cc(NS(=O)(=O)c3ccc(C)cc3)ccc21,"inconclusive: 35.5 µM [inhibitor, single point]"
21,COc1ccc(NC(=O)c2ccccc2NS(C)(=O)=O)cc1OC,inactive
22,NCC(=O)c1c[nH]c2ccccc12,inactive

row,Structure (SMILES),Potency
1,CCC(C)n1cnc2c(c1=O)c1nc3ccccc3nc1n2Cc1ccc(OC)cc1 (centres undefined),"inconclusive: 28.2 µM [inhibitor, single point]"
2,Nc1nn2c(C(F)(F)F)cc(=O)[nH]c2c1N=Nc1cccc(F)c1,inactive
3,Cc1cccc(/C(N)=N/OC(=O)COc2ccc(Cl)c(C)c2)c1,"inconclusive: 3.55 µM [inhibitor, single point]"
4,CCOC(=O)n1c(=O)[nH]c2ccc(Br)cc21,inactive
5,CSc1oc(-c2ccccc2)nc1S(=O)(=O)c1ccc(F)cc1,"inconclusive: 15.8 µM [inhibitor, single point]"
6,C[C@@H]1CN([C@@H](C)CO)C(=O)CCCn2nncc2CO[C@@H]1CN(C)C(=O)Nc1cccc(C(F)(F)F)c1,inactive
7,CC(C)CC(NC(=O)OC(C)(C)C)c1cn([C@@H](Cc2cc3ccccc3[nH]2)C(=O)N2CCN(C(=O)OC(C)(C)C)CC2)nn1 (some centres undefined),"inconclusive: 12.6 µM [inhibitor, single point]"
8,Cc1ccc(S(=O)(=O)c2cc3c(=O)n4cccc(C)c4nc3n(Cc3ccncc3)c2=N)cc1,inactive
9,CCC(CC)C(=O)Nc1cc(-c2cccc(C)c2)nn1-c1ccccc1,inactive
10,CCOC(=O)c1c(C(F)(F)C(F)(F)C(F)(F)C(F)(F)F)n[nH]c1C,"inconclusive: 35.5 µM [inhibitor, single point]"
11,Cc1ccc(-n2nc3c(SCCN4CCOCC4)nnc(C)c3c2C)cc1,inactive
12,Cc1cc(NCc2ccccn2)n2nc(C)c(-c3ccc(Cl)cc3)c2n1,"inconclusive: 17.8 µM [inhibitor, partial curve, poor fit]"
13,Nc1nonc1N/N=C\c1ccccc1,inactive
14,CC1C=CCC2C(=O)N(c3cccc(C(=O)Nc4ccc(Br)cc4)c3)C(=O)C12 (centres undefined),"inconclusive: 11.2 µM [inhibitor, single point]"
15,CCOc1cc(C)c(-c2onc(C(F)(F)F)c2-c2csc(C)n2)c(O)c1,"inconclusive: 35.5 µM [inhibitor, single point]"
16,Cc1cc(C(C)(C)C)oc1C(=O)N(CC(=O)NC1CCCC1)Cc1ccc(Cl)cc1,"inconclusive: 11.2 µM [inhibitor, single point]"
17,CCCN(c1ccc(C(C)C)cc1)S(=O)(=O)c1ccc2c(c1)CCN2C(=O)CC,inactive
18,Cc1cccnc1CNC(=O)C1CCC(=O)N(CCc2cccc(F)c2)C1 (centres undefined),inactive
19,CCNC(=O)C1(C)CCCN(Cc2ccc(-c3ccccc3)o2)C1 (centres undefined),inactive
20,NC(Cc1ccccc1)c1csc(NC(=O)Nc2ccccc2Oc2ccccc2)n1 (centres undefined),"inconclusive: 22.4 µM [inhibitor, single point]"
21,COc1ccc(OC)c(-c2nc3c(C#N)c[nH]n3c2NC2CCCCC2)c1,"inconclusive: 5.62 µM [inhibitor, single point]"
22,CCOc1cc(N2CCOCC2)c(OCC)cc1NC(=O)CC12CC3CC(CC(C3)C1)C2,"inconclusive: 20 µM [inhibitor, partial curve, poor fit]"
